Experimental data from the RNAGym collection of RNA variant scans (doi:10.7554/elife.90254).
Read counts are not given, so values of variants with three or more changes are uncertain.

B1: LINE1-mini (parent)
chain: GGCAGAGCUCAACACAGCGUGGCAAAGUGGCUGUGGCUAGACUGCC

Variants of: B1
Experiment: self-cleavage, relative activity (ratio to wild type); higher = more cleavage; in vitro, sequencing; the parent is a self-cleaving ribozyme

| Variant | self-cleavage |
| --- | --- |
| GGCAGCGCUCCACACAGCGUGGCAAAGCGGUUGUGGCUAGACUGCC [A6C A11C U28C C31U] | 0.04 |
| GGCAGAGCUAAACACAGCGUGGCAAAGUGGCUAUGGCCAGACUGCC [C10A G33A U38C] | 0.01 |
| GGCAGAGCUCAACAGACCGUGGCACAGUGGCUGUGGCUAGACUGGC [C15G G17C A25C C45G] | 0.04 |
| GGCAGAGCUAAACACAGCGUCGCAAACUGGCUGUGGCUAGACUGGC [C10A G21C G27C C45G] | 0 |
| GGCAGAGCACAAAACAGCGUGGCGCAGUGGCUGUGGCUAGAUUGCC [U9A C13A A24G A25C C42U] | 0.24 |
| GGCACAGCUAAACAAAGCGUAGCAAAGUGGCUGUGGCUAGACUGCC [G5C C10A C15A G21A] | 0.01 |
| GGCAGAGCUCAAUACAGCGUGGCAAAGGGGCUGGGGCUAGACUGCC [C13U U28G U34G] | 0.01 |
| GACAGAGCUCAACACAUCGUGGCAAAGUGGCUGUGGCUAUACUGCC [G2A G17U G40U] | 0.11 |
| GGCAGAGCUCAACACAGCGGGGCAAAGUUGCUGUGCCUAGCCUGCC [U20G G29U G36C A41C] | 0.07 |
| GGCAGAGGUCAAGACAGCGUUGCAAAGUGGCUGUGACUAGACUGCC [C8G C13G G21U G36A] | 0.18 |
| GGCAGAUUACAAAACAGCGUGGCAAAGUGGCUGUGGCUAGACUGCC [G7U C8U U9A C13A] | 0.88 |
| GGCAGAGCUCAACACAGCGUGGCAAAUUGGCUGUGGCUAGACUGUU [G27U C45U C46U] | 1.66 |
| GGCAGAGCUCAACACAGCGUGGCAAAGAGUCAGUGGCUAGGCUGCC [U28A G30U U32A A41G] | 0.16 |
| GGCAGAGCUCAAUACAGCGUGGCAAAGUGGCUGUGGAUAGUCUGCC [C13U C37A A41U] | 0.09 |
| UGCAGAGGUCAACACAGCGUGGUAAAGUGGCUGUGGCCAGACUGCC [G1U C8G C23U U38C] | 0.05 |
| GACAAAGCUAAACACAGCGUGGCAACGUGGCUCUGGAUGGAUUGCC [G2A G5A C10A A26C G33C C37A A39G C42U] | 0.04 |
| GGCAGCACUCAACACAGUGUUGCAAGGUGGUUUUGGCUAAACUGCC [A6C G7A C18U G21U A26G C31U G33U G40A] | 0.02 |
| GGCCGAGCUCACCACAUCGUGGCAAAGUGGCUGUGGCAAGACUGCC [A4C A12C G17U U38A] | 0.03 |
| UGGAGCGCUCACCACAGCGUGGGAAAGUGGCUAUGGCUAUACUGCU [G1U C3G A6C A12C C23G G33A G40U C46U] | 0.01 |

| Variant | self-cleavage |
| --- | --- |
| GGCAGAGCUCAACACAGCGUGGCAGUGUGGCUUUGGCUAGACAGCC [A25G A26U G33U U43A] | 0.02 |
| GGCAGAGCUCAACACAGCGUGGCGAAGUGGCUGUGGCUAGAUUGAC [A24G C42U C45A] | 0.23 |
| GGCAGAGCUCAUCACAGCGUGGCAAAGUGACUGUGGCUCGACUGCC [A12U G30A A39C] | 0.01 |
| GUCAGGGCUCAGCACACCCUGGCAAAGUGGCUGAGGCUAGACUGCC [G2U A6G A12G G17C G19C U34A] | 0 |
| GCCAGAGCUCAACACAGAGUGGCAAAGUGGCGGUGGCUAGACUGCC [G2C C18A U32G] | 0.03 |
| GGAAGAGGUCAACACAGCGUGGCAAAGUGGCUGUGGCUAGACCGCC [C3A C8G U43C] | 0 |
| GGCAGAGCUCAAAACAGUUUGGCAAAGUGGCUGUGGCUACACUGCC [C13A C18U G19U G40C] | 0.01 |
| GGCUGAGCUCAACACAGGGUGACAAAGUGGCUGUGGCUAAACUGCC [A4U C18G G22A G40A] | 0.03 |
| GGCGGACCUCAACACGGCGUGGCAAAGUGGCUGUGGCUAGACUGCC [A4G G7C A16G] | 0.13 |
| GGCAGAGCUCAACACAGCGUGGCAAAGUGGCAGUGGCUAGGCUACC [U32A A41G G44A] | 0.04 |
| GGCAGAGCCCAACACAGCGUGGCAAAGUGGUUCUCGCUAGACUGCC [U9C C31U G33C G35C] | 0.02 |
| GGAAAAGCUCACCACAGCGUGGCAAAGUGGCUGUGGCUAGCCUGCC [C3A G5A A12C A41C] | 0.04 |
| GGCAGAGCUCAACAAAGCGUGGCACAGAGGCUGUGGCUAGACUGCC [C15A A25C U28A] | 0.04 |
| GGCAGAGUUCAACACAGCGUGGCAAAGUGGCUGUCACUAGACUGCC [C8U G35C G36A] | 0.1 |
| GGCAGAGCUCAACACAGCGUGGCAAAGUGGCUGUUGCUAGACGGCA [G35U U43G C46A] | 0.01 |
| GGCAGAACUCCACACAACGUGGCAAAGUGGCAGUGGCUAUACUGCC [G7A A11C G17A U32A G40U] | 0.01 |
| GGCAGGGCUCAACACAGAGAGGCAAAGUGGCUGUGACUAGACUGAC [A6G C18A U20A G36A C45A] | 0.01 |
| GACAGAGCUCAACACAGGGUAGCAAAGUGGAUGUGGCUAGACUGCC [G2A C18G G21A C31A] | 0.1 |
| GGCAAAACUCAACACAGCGUGGCAAAGUGGCUUUGGCUAUACUCCC [G5A G7A G33U G40U G44C] | 0.22 |

| Variant | self-cleavage |
| --- | --- |
| GGCAGAGCUCAACAAAGCUUGUCAAAGUGGCGGUGGCUCGACUGCC [C15A G19U G22U U32G A39C] | 0.02 |
| GGCAGAGCUCAACACAACGAGGCAAAGUGGCUGUCGCUAGACUGCC [G17A U20A G35C] | 0.02 |
| GGCAGAUCUCAACACAGCGUGGCAAAGUGGCUUUGGCUUGCCUGCC [G7U G33U A39U A41C] | 0.07 |
| GGCAGAGAUAAACACAGCGUGGCAAAGUGGCAGUGGCUAGACUGCC [C8A C10A U32A] | 0.01 |
| GGCAUAGCUCAACACAUAGUAGCAAAGUGGCUGAGGCUAGACUGCC [G5U G17U C18A G21A U34A] | 0.03 |
| GGCAGAGCUCAACACAGCGUGGCAAGGUGGCUGUGGCUAGCCUGAC [A26G A41C C45A] | 0.07 |
| GGCAGAGCUCAACACACCGUCGCAAAGUGGCUGUGUCUAGACGUCC [G17C G21C G36U U43G G44U] | 0.01 |
| CGCAGAGCUCAACACCGCGUGGCAAAGUGGCCAUGGCUAGACUGCC [G1C A16C U32C G33A] | 0.02 |
| GGGAAAGCUCAAGACAGCGUGGCAAAGCGGUUGUGGCUCGACUGCC [C3G G5A C13G U28C C31U A39C] | 0.06 |
| GGCAGAGCUAAACACAGCGUGGCACAGUGGCUUUGGCUAGACUGCC [C10A A25C G33U] | 0.05 |
| GGCAGAGCUCAUCACAGCCUGGCAAAGUGGCUGUUGCUAGACUGCC [A12U G19C G35U] | 0.04 |
| GGCAGAGCUCAACAAACCGUGGCAAAUUGGCUGAGGCUAGCCUGCC [C15A G17C G27U U34A A41C] | 0.03 |
| GGGAGAGCUCACCACAGCGUGGCAAAGUGGCUGUGGCUAGACUGCG [C3G A12C C46G] | 0.16 |
| GGCAGAGCUCAUCACAGCGUGGCAAAGUGGAUGGGGCUAGACUGCC [A12U C31A U34G] | 0 |
| GGCAGAGGUUAACACAGCGUGGCAAAGUUUAUGUGGCUAGACUGCC [C8G C10U G29U G30U C31A] | 0.15 |
| GUCAGAGCUCAACACAGCGUGGCAAAGGGGCUGUGCCUAGACUGCC [G2U U28G G36C] | 0 |
| GGUAGAGCCCAACACAGCGUGGAAAAGUGGCUGUGGCUAGACUGCC [C3U U9C C23A] | 0.02 |
| GGCAGAGGGCAACAUAGCGUGGCAAAGUGGCUGUGGCUAGACUACC [C8G U9G C15U G44A] | 0.07 |
